Laboratory results from the supplement of paper PMC3334620.
The full ranking holds about 33,000 sequences; the median of “E-score (-0.5 to 0.5)” is about -0.054, and the highest 2% start at about 0.39. This is one part of the list.

target: Ylr278c (UniProt Q05854); test: PBM E-score (8-mer binding enrichment) (E-score (-0.5 to 0.5)); higher = stronger / more preferred TF binding; most listed sequences are background and not binding sites; details: protein concentration: 200 nM; construct: GST-DNA-binding domain
In short: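 E-scores (a modified Wilcoxon-Mann-Whitney statistic) were assigned by the Universal PBM Analysis Suite to every ungapped eight-base word pooled with its reverse complement. The input came from universal all-10-mer Agilent arrays made double-stranded by primer extension and probed with GST-tagged yeast transcription factors at about 100-200 nM. Fluorescent anti-GST detected bound protein, and masliner normalised the scans.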

Sequence | PBM E-score
CTCACTCC | 0.205
GCACGCGA | 0.0479
CTAAGTCC | 0.161
CAGAACGC | 0.0352
GAACCCGA | 0.146
GCACTACC | -0.0883
AGGTAACA | -0.0992
GAATGAAC | -0.0135
GCAATCCC | 0.316
AAGCAGCG | -0.0544
ACAGTCGA | -0.289
AAAAGAAA | -0.0701
CTGTTCTC | 0.0566
CGCGAACC | 0.24
AAGTTTTC | 0.0117
CGACAAAG | 0.0949
ATTCCTGC | 0.0732
CCCTCGGC | 0.207
GAGTCTCC | 0.291
CAAATCTA | -0.174
GCAAACAC | -0.128
ACGCAAAG | -0.0959

Sequence | PBM E-score
AAAGTCCT | 0.226
GTGTCTAA | -0.383
ACGACTTG | -0.229
CATGAAGA | -0.185
AAGGGAGT | -0.314
GTCCTATA | -0.183
AGACGAAG | -0.0807
CGACGATA | -0.033
AAATGCAA | -0.269
AACGTGGA | -0.238
AGTTCTGA | -0.201
CGCGTATC | 0.144
AGGTAATC | 0.082
ATTCCGGG | 0.443
AAAGGGCA | -0.178
ATAAGACA | -0.183
CAACTTCA | -0.217
TGGGAACA | -0.124
CTGCTTAC | -0.149
AGCCCACG | -0.0945
ACAACAGC | -0.175
CGAGAGAG | 0.067

Sequence | PBM E-score
GGCGGCCC | 0.13
AACATTCA | 0.00265
GTCGTTGA | -0.225
CCATTAGG | -0.305
CGAACGAG | -0.101
AATACGAC | -0.195
AGCGGCTC | 0.165
AATCTGGA | -0.0162
GGCCATAA | -0.0554
CCGGATAC | 0.384
AATACATC | 0.128
ACTTACTA | -0.18
CTTTCTAA | -0.155
ATACCCCA | 0.00063
AGGATCAA | 0.0948
ATAATCTG | -0.214
AAATCCCT | -0.0491
ACCCCACC | 0.259
CAAGATCA | -0.212
CGACTCAG | -0.0452
GCAAGGTA | -0.231
CAGCCCCA | -0.101

Sequence | PBM E-score
CCTATGAA | -0.205
GGATACAA | -0.00253
TGGGGACA | -0.14
GAGTCTCA | -0.115
AGACATTA | -0.0914
CAAAGGCG | -0.146
ATTGTGAA | -0.17
CCTTAAAC | -0.173
CGGACCGA | 0.409
ACCTCACA | -0.0167
CACCGCGG | 0.294
ACCTCGAG | 0.00411
CATTATTA | 0.0225
CCCTGGAA | -0.149
AGCACGGA | 0.211
ACACACCC | 0.0283
TGGATAAA | 0.0471
ACGTATCC | -0.0765
CGTTGTCC | 0.159
CCCGGGAC | 0.394
TCACAAAA | 0.147
CTTGTGTC | -0.174

Sequence | PBM E-score
CCTGCCGA | 0.0781
TCCATAGA | -0.0419
GTACACTA | -0.223
CTATGGCC | -0.12
CCCGAGGC | 0.14
ATGCCAAG | -0.154
CCAACTCG | -0.149
ACGGGTTA | -0.0173
TAGTGTGA | -0.285
AGTCGCGA | 0.0519
AGCTATCC | 0.0371
ACAAATGG | -0.122
CTGTACTA | -0.129
CTACACGC | -0.235
AAGTTACA | -0.173
GATTAAAA | 0.0412
CACATGGC | -0.156
AGAAGACC | 0.0375
AGGTTCAT | -0.151
CGTAACTC | 0.0375
CATACCAC | -0.0683
